Assay results published in PubChem BioAssay AID1347417 (National Center for Advancing Translational Sciences (NCATS), 2020).
Among all 120,000 compounds or so, about 5,300 (4.4%) were called active. The shares of active, inactive and inconclusive entries below differ from those in the screen. The call rests on the fitted dose curve; in most records, active means well fitted inhibition curve with a large enough effect; inconclusive means small, poorly fitted or top-dose-only effect; inactive means no such curve, though single readings can be large or run the other way. Where the call is inconclusive, the potency comes from a doubtful curve fit.

Assay: qHTS Primary assay for Inhibitors of Plasmodium falciparum Dd2 growth in vitro; further: nearly all actives have a fitted effect of over 65% in size
Settings: P. falciparum Dd2 growth, SYBR Green, 72 h; series mostly up to 28.9 µM
Method in brief: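 Infected erythrocytes (Dd2, 0.3% parasitemia, 2.5% hematocrit final) are added to compound in RPMI-1640/Albumax II medium, grown 72 h at 37C in low oxygen, then lysed with saponin/Triton-X containing SYBR Green and read by fluorescence.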
Potency means the concentration at half of the fitted maximal effect; tags describe the fitted curve by direction and shape.

SMILES	Potency
Cc1cc(C)cc(C(=O)N2CCCC(n3cc(-c4nc(C(C)C)no4)nn3)C2)c1 (configuration not stated)	inactive
COCCC(=O)N1C[C@@H]2C[C@H](C1)c1ccc(-c3cccc(C(F)(F)F)c3)c(=O)n1C2	inconclusive: 12.6 µM [inhibitor, partial curve, poor fit]
CN1CCC(N2CC[C@H](c3nc4ccccc4[nH]3)C2)CC1	inactive
COc1cccc(C2c3c(-c4ccccc4O)n[nH]c3C(=O)N2Cc2cccnc2)c1 (configuration not stated)	inconclusive: 17.8 µM [inhibitor, single point]
COCC(=O)N[C@@H]1CCC[C@@H](C(=O)N(C)Cc2cccnc2)CC(=O)N(C)C1	inactive
Cc1cc2c(-c3cccnc3)nc(-c3c(C)noc3C)cc2[nH]1	inactive
CCNC(=O)N[C@@H]1C=C[C@@H](c2c(C)nn(-c3ccc(F)cc3)c2C)C1	inconclusive: 3.55 µM [inhibitor, partial curve, poor fit]
CCN(C(=O)c1cc2cc(Br)cc(OC)c2oc1=O)c1ccccc1	inconclusive: 0.126 µM [inhibitor, full curve, poor fit]
CCCC(NC(=O)c1ccc(C#N)cc1)c1ccccc1 (configuration not stated)	inconclusive: 1.12 µM [inhibitor, partial curve, poor fit]
Cc1ccc(F)cc1NC(=O)CCSc1nc(-c2ccco2)cc(C(F)(F)F)n1	active: 0.794 µM
COc1ccc(N2CCN(c3nc(C(=O)N4CCC(C)CC4)cs3)CC2)cc1	inconclusive: 14.1 µM [inhibitor, partial curve, poor fit]
Cc1ccc(NC(=O)C(=O)NCC(c2cccnc2)N2CCc3ccccc3C2)cc1 (configuration not stated)	inconclusive: 17.8 µM [inhibitor, single point]
CS(=O)(=O)N1CCOc2ccc(CCC(=O)NCCN3CCOCC3)cc2C1	inactive
C=Cc1ccc(Cn2c(C(=O)O)c(CNCc3ccccc3)c3ccc(OC)cc32)cc1	active: 11.2 µM
CC(C)CCNC(=O)c1nn(C)c2c1CSc1ccccc1-2	inactive
COC(=O)c1c(-c2cccs2)csc1NC(=O)c1cc(OC)c(OC)c(OC)c1	inconclusive: 8.91 µM [inhibitor, single point]
CNC(C)c1cccc(OC)c1 (configuration not stated)	inconclusive: 10 µM [inhibitor, partial curve, poor fit]
COc1ccc(-c2cn3c(n2)sc2cc(C(=O)Nc4ccc(F)cc4Cl)ccc23)cc1	inconclusive: 11.2 µM [inhibitor, partial curve]
CCOc1cc2[nH]c(=O)n(CCCC(=O)NCc3ccc(OC)cc3)c(=O)c2cc1OCC	inconclusive: 7.08 µM [inhibitor, partial curve]
C[C@H]1CN(C(=O)CCCc2ccccc2)C[C@@H]1c1nc(-c2ccccc2)no1	inactive
Cn1cc(CNC(=O)C[C@@H]2C[C@H]3O[C@H](CNCc4ccccc4C(F)(F)F)[C@@H](O)[C@H]3O2)cn1	inactive
COc1cc(OC)c(NC(=O)NCc2cccn2Cc2ccccc2)cc1Cl	inconclusive: 11.2 µM [inhibitor, single point]
Cc1ccccc1-c1nccn2c(C3CN(Cc4ccccc4O)C3)ncc12	active: 0.355 µM

SMILES	Potency
O=C1NCc2ccccc2CC12CCCCN2Cc1ccncc1 (configuration not stated)	inconclusive: 10 µM [inhibitor, partial curve, poor fit]
CCc1ccc(-n2nc(C)c3c(C(=O)N4CCN(c5cccc(Cl)c5)CC4)cc(C)nc32)cc1	active: 11.2 µM
CCn1cc(CN2CCc3nc(N4CCN(C)CC4)[nH]c(=O)c3CC2)c2ccccc21	inconclusive: 0.891 µM [inhibitor, partial curve, poor fit]
COc1ccc(OC)c(NC(=O)N2CCC(OC3CCN(S(C)(=O)=O)CC3)CC2)c1	inactive
Cn1nccc1C(=O)N1CCC2(CC1)CC(N(Cc1ccc(F)cc1)C1CC1)CCO2 (configuration not stated)	inactive
CCCN1C(=O)Cc2ccccc2C1C(=O)NCc1ccc(F)cc1F (configuration not stated)	inactive
COc1cc(Br)ccc1C1C(C(=O)Nc2ccc(C)cc2C)=C(C)Nc2nnnn21 (configuration not stated)	inconclusive: 10 µM [inhibitor, single point]
COc1ccc(CCNc2nc3ccccc3c3nc(-c4cccc(C)c4)nn23)cc1OC	inconclusive: 17.8 µM [inhibitor, single point]
O=C(Nc1ccccc1)N1CCn2c(nnc2C2CCCN2)C1 (configuration not stated)	inactive
Fc1ccc(-c2cnc3n[nH]c(-c4ccc5c(c4)OCO5)c3n2)cc1	inconclusive: 2.82 µM [inhibitor, partial curve, poor fit]
CC1(c2ccccc2)N(Cc2ccccc2)C(=O)OC12CCN(Cc1ccc(C#N)cc1)CC2 (configuration not stated)	inconclusive: 4.47 µM [inhibitor, partial curve]
CSCc1nc(-c2ccncc2)nn1Cc1ccc2c(c1)OCO2	inactive
COc1ccccc1N1CCN(C2CCCN(C3CCN(Cc4ccccc4)CC3)C2)CC1 (configuration not stated)	active: 12.6 µM
O=C(c1nnc(CNc2ccc(F)cc2)n1-c1ccccc1)N1CCC[C@@H]1C(c1ccccc1)c1ccccc1	inconclusive: 2 µM [inhibitor, single point]
CCOC(=O)C1(Cc2ccccc2F)CCCN(C(=O)c2ccc(-n3ccnc3)cc2)C1 (configuration not stated)	inactive
COC(=O)[C@H](NC(=O)[C@@H]1[C@@H](NC(=O)Nc2ccc(F)cc2F)CCN1C(=O)c1cccn1C)C(C)C	inconclusive: 12.6 µM [inhibitor, partial curve, poor fit]
O=C(CCC1CCCC1)N1CCCC1c1nc(CCOCC2CCOCC2)no1 (configuration not stated)	inconclusive: 5.01 µM [inhibitor, partial curve]
COc1ccc(CNC(=O)c2ccc3c(c2)N(Cc2ccccc2C)C(=O)c2ccccc2S3=O)cc1 (configuration not stated)	inconclusive: 17.8 µM [inhibitor, single point]
C[C@@H]1CN(C(=O)CN(C)Cc2ccccc2F)C[C@]1(C)O	inactive
COCC(=O)Nc1ccc([C@@H](O)[C@H]2COCC(=O)N2Cc2ccc(F)cc2)cc1	inconclusive: 31.6 µM [inhibitor, single point]
Cc1nc(-c2cccc(Cl)c2)n(Cc2ccc(F)c(F)c2)c(=O)c1CCO	inconclusive: 17.8 µM [inhibitor, single point]
COc1ccc(CCc2nc3nccc(-c4ccco4)n3n2)cc1	inactive
O=C(O)CC1COCCN1C(=O)c1cc(-n2cccn2)ccc1Cl (configuration not stated)	inactive

SMILES	Potency
COC[C@H]1CCCN1C(=O)CC[C@@H]1CNC(=O)[C@@H]2C[C@H](NCc3ccc(OC)cc3)CN12	inactive
CCOc1ccc(CC(=O)NCCc2csc(-c3ccc(Cl)cc3)n2)cc1	inactive
Cc1cc(CNC(=O)c2ccc3c(c2)n(CC2CC2)c(=O)n3C2CCCCC2)on1	inactive
CCc1ccc(Nc2sc(C(=O)c3ccccc3)c(N)c2S(C)(=O)=O)cc1	inconclusive: 10 µM [inhibitor, single point]
CC(=O)c1ccc(NC(c2ccc(F)cc2)c2nnc(-c3ccccc3)o2)cc1 (configuration not stated)	inactive
CC(C)(C)OC(=O)N1CCC(c2c(C(=O)N3CCN(c4ccccn4)CC3)cnn2-c2ccccc2Cl)CC1	inconclusive: 8.91 µM [inhibitor, single point]
CCOCCCNC(=O)c1cn(CC)c2ccc(S(=O)(=O)N3CCc4ccccc4C3)cc2c1=O	inconclusive: 10 µM [inhibitor, single point]
COc1cccc(C(=O)NCC2CCCN(Cc3ccc(Cl)cc3)C2)c1OC (configuration not stated)	inconclusive: 11.2 µM [inhibitor, partial curve]
CC(C)c1noc(-c2cn(C3CCCN(C(=O)c4cccc5[nH]ccc45)C3)nn2)n1 (configuration not stated)	inconclusive: 20 µM [inhibitor, single point]
COc1cc(C(CC(=O)Nc2cc(C)ccc2C)N2Cc3ccccc3C2=O)cc(OC)c1OC (configuration not stated)	inconclusive: 17.8 µM [inhibitor, single point]
CC1=C(C(N)=O)C(c2cccc(C)c2)n2nc(-c3cccc(C)c3)nc2N1 (configuration not stated)	inconclusive: 14.1 µM [inhibitor, single point]
COCCn1ncc(N2CCCC(CC(=O)Nc3ccc(Cl)cc3)C2)cc1=O (configuration not stated)	inconclusive: 17.8 µM [inhibitor, single point]
COc1ccc2[nH]c(C(=O)N3C[C@@H](CO)[C@H](c4ccccn4)C3)cc2c1	inconclusive: 10 µM [inhibitor, single point]
Cc1ccccc1N1Cc2c(NCCCc3ccccc3)ncnc2N(C)CC1=O	inconclusive: 7.08 µM [inhibitor, partial curve, poor fit]
COc1ccc(OCC2c3cc(OC)c(OC)cc3CCN2C(=O)COc2ccc(Cl)cc2Cl)cc1 (configuration not stated)	active: 10 µM
CCn1ncc(N2CCC(NC(=O)CCOC)CC2)cc1=O	inactive
Cc1ccc(C(=O)N2CCC(Cc3noc(C4CCOCC4)n3)C2)s1 (configuration not stated)	inconclusive: 3.98 µM [inhibitor, single point]
COc1ccc(Cn2ccc3nc(C)c(C(=O)N4CCN(c5ccccc5OC)CC4)cc3c2=O)cc1	inconclusive: 14.1 µM [inhibitor, partial curve, poor fit]
CC(=O)Nc1cccc(-c2cn(C)c(=O)n3cc(COc4ccccc4)nc23)c1	inconclusive: 1 µM [inhibitor, full curve, poor fit]
Cc1ccc(-c2cn3c(n2)sc2cc(C(=O)NCc4cccs4)ccc23)c(C)c1	active: 11.2 µM
COC(=O)[C@@H]1Cc2c([nH]c3ccccc23)[C@H]2C[C@@H](NCCO)C[C@@H](c3ccccc3F)N21	inconclusive: 1.26 µM [inhibitor, partial curve, poor fit]
